Measured values published in the supplement of paper PMC3334620.
In all, about 33,000 sequences were measured (“E-score (-0.5 to 0.5)”: median about -0.017, highest 2% from about 0.3 on). This is one part of the list.

The sequences below were run against T1, Sut1 (UniProt P53032) (assay: PBM E-score (8-mer binding enrichment) (E-score (-0.5 to 0.5)); higher = stronger / more preferred TF binding; most listed sequences are background and not binding sites). Conditions: protein concentration: 200 nM; construct: GST-full length.
T1 sequence: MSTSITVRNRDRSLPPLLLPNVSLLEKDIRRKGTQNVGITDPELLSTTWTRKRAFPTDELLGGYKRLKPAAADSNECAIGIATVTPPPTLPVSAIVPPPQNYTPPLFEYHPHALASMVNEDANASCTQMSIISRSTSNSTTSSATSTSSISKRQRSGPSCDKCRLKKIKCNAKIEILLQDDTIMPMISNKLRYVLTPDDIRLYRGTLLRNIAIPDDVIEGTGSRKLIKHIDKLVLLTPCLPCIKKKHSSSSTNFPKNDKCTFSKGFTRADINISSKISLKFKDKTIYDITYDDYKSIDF
Outline: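 PURExpress in vitro transcription/translation supplied GST-tagged yeast transcription factors, either full-length or DNA-binding domain. Applied at about 100-200 nM to universal all-10-mer Agilent arrays double-stranded by primer extension, the bound protein was detected with fluorescent anti-GST. E-scores, modified Wilcoxon-Mann-Whitney statistics, were given by the Universal PBM Analysis Suite to ungapped eight-base words pooled with their reverse complements after masliner normalisation.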

Sequence | PBM E-score
GGTCTATA | -0.106
AGTGGGCC | -0.32
GTTGGGCA | -0.252
CTTGCCAC | -0.176
AGTGCTTA | -0.0718
GGTATTGA | -0.0326
AATACACT | 0.144
GCCTTTAC | -0.0182
CCAGGCAG | -0.155
CCCTGCCA | -0.16
AAATCGTT | 0.179
ACAAATAG | 0.113
CCCGTTTA | -0.00276
CACCCCAA | -0.0763
GACTATAC | 0.0723
ACGTTTTA | 0.213
TACCTTAA | -0.00986
CAGTCAGA | -0.0501
CCGTATAA | 0.105
ACAGAGCT | -0.258
CCGGGGGC | -0.0384
ATTAAGAA | 0.11
ACAGAGTA | -0.0728
GGGTACCA | -0.29
ATCGCCTA | -0.0867

Sequence | PBM E-score
ATCCAGAA | 0.0104
GAGAAATA | 0.134
AATAAGGC | 0.0317
ATTCTCCC | -0.0729
GGACCTCC | 0.138
CAGTCTGA | 0.00085
GCATTAGC | -0.214
CGGTCGAA | 0.0555
CTTTGAAC | 0.0486
AAGTCAAG | -0.0946
CCATTCCG | 0.149
ATGTTCTG | -0.0211
TCAAACAA | 0.134
AGCGCAAC | -0.0476
CACTTCAC | -0.14
CGGATTGC | 0.068
AATAGCCG | 0.146
CATTGTTC | 0.0786
GCTATTGA | -0.0458
AAAGTGCC | -0.127
CACGGATA | 0.043
ACAGTGCA | 0.121
ACTTCATA | 0.101
CTGAGGTA | -0.0253
ACACATAT | 0.0563

Sequence | PBM E-score
CACTAAGG | -0.146
GCGTGATA | -0.0567
CAATGACC | -0.0978
GCGTGTTA | -0.0336
CCCTAACG | 0.0085
AAACCGAA | -0.00046
CCAAATTA | 0.211
CCACTTTA | 0.0316
CGAGTTTA | 0.0867
AACTTTGC | 0.124
GTTGCTTA | 0.111
AACATCCG | 0.147
ACCATCCG | -0.00169
ACTTTGCG | 0.0957
ATGAGCAG | -0.076
TCAGCTGA | 0.159
ATGCCGGG | -0.0609
CCTACACA | 0.00672
ACCCATCG | -0.096
AATTATAC | 0.308
AAAAGAGA | 0.104
CGGATGAG | 0.136
AGACAACG | 0.081
ACGGTAGA | -0.0884
CCGAGGAA | 0.163

Sequence | PBM E-score
ACGTGTCT | -0.19
CTAAGGCC | -0.21
CATGTAAG | 0.0151
GCCTCGCA | -0.181
AATCCACT | 0.0567
CACAAGTA | 0.00295
AGAAGCAA | 0.103
AGAGATCG | -0.0766
AACCGCTC | -0.096
AGGATTGG | -0.172
CCCAACCG | -0.216
ACAATACG | -0.0209
ACACACTG | -0.254
CGACTTCA | 0.136
ACTTTTGA | 0.18
ACCATCGC | -0.0993
GGAGAGTA | 0.0165
TCTTAGAA | 0.283
CACTTATA | 0.0975
CCAGAGTA | -0.122
CTGCCAGC | -0.162
ACTGCAAG | -0.0394
GCGTATAA | -0.00837
GTAGACAA | 0.157
CATATTCG | 0.0408

Sequence | PBM E-score
AGTTTGTC | 0.114
AAATCAAA | 0.239
TGAACCAA | 0.1
ACGGTATG | -0.0888
AGTTACCG | 0.169
ATCGCTAC | -0.0624
ACATCAAG | 0.0603
CTGATCCA | -0.111
ATCTATAG | 0.11
GAGTGCTA | 0.0199
CGCGCTCC | 0.0421
GCGGGTCC | -0.14
CGTCCTTA | -0.176
GCTATTCC | -0.0308
AACAAGCC | -0.112
AAAGAGCG | 0.153
GCCCCACA | -0.305
GAAGGAGC | -0.293
ACATCTGG | -0.0265
CCAGGGCG | -0.26
ATGCCTTG | -0.0663
GAATTGAC | 0.0462
CTCCACGA | -0.0324
AATATAGG | 0.179
CGTGGGAC | -0.0896

Sequence | PBM E-score
CTGGCTCA | -0.0837
TCGAACAA | 0.102
ACCTCCTC | -0.197
CCGAAAGA | 0.264
CTTGTGTA | 0.0882
CCCTTCTC | -0.146
GAATCTCC | 0.234
CGCATCGC | -0.172
CACCGGTG | 0.0775
ATTGATGG | 0.118
CGACGGAG | 0.254
CCGTTCAC | -0.107
GAAGGTCA | -0.00746
CCTACGAA | -0.134
CAGCGCGG | -0.0683
ATCGTCGC | -0.183
ATCCTCCG | 0.115
CGACACTC | 0.0434
GACAATAA | 0.107
CTAGTAAC | 0.0682
CCTACTCC | 0.278
GACCCGCA | -0.146
GCGCTCCA | -0.242
ACGTACTA | -0.0235
CGATTCTC | -0.00194

Sequence | PBM E-score
GAGGGGAA | -0.112
ATCAATGA | 0.164
AGACCCCT | -0.317
GGCCCACC | -0.247
GGACTTGA | 0.339
ACGGGCCC | -0.203
CGGACGAA | 0.234
ATTAAACC | 0.235
ATTCTTGG | 0.0534
AATCTTAT | 0.126
AACATGTA | 0.224
TCTACAAA | 0.0443
ACTTGAGA | -0.0637
AATGTAGT | 0.165
AGGTGGCG | -0.24
ACCTTGGG | -0.109
TGTGTGAA | -0.105
ATCAATTA | 0.31
AGCAATAC | 0.139
ACTTTCCG | 0.258
ATGTGTCG | -0.0171
CAGTTCGG | 0.148
